Data reported in the supplement of paper PMC8728848.
Some of the results follow.

Legend:
Assay in all cases: glycan array binding signal (z-score within array); higher = stronger binding
Details in all cases: glycan notation: IUPAC condensed, linker removed
[1] = biological target: Fuc(a1-2)Gal(b1-4)[Fuc(a1-3)]GlcNAc
Procedure, shortened: (§1)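 From the Consortium for Functional Glycomics database, 3228 arrays were curated, keeping only those whose protein sequence was available. Binding is given as a within-array Z-score averaged across arrays sharing a protein sequence and across linkers. Negative Z-scores can be read as non-binding.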

[2] = biological target: Fuc(a1-2)Gal(b1-4)[Fuc(a1-3)]GlcNAc(b1-2)Man(a1-3)[Fuc(a1-2)Gal(b1-4)[Fuc(a1-3)]GlcNAc(b1-2)Man(a1-6)]Man(b1-4)GlcNAc(b1-4)GlcNAc
Procedure, shortened: as §1

[3] = biological target: Fuc(a1-2)Gal(b1-4)[Fuc(a1-3)]GlcNAc(b1-2)[Fuc(a1-2)Gal(b1-4)[Fuc(a1-3)]GlcNAc(b1-4)]Man(a1-3)[Fuc(a1-2)Gal(b1-4)[Fuc(a1-3)]GlcNAc(b1-2)Man(a1-6)]Man(b1-4)GlcNAc(b1-4)GlcNAc
Procedure, shortened: as §1

[4] = biological target: Fuc(a1-2)Gal(b1-4)[Fuc(a1-3)]GlcNAc(b1-3)Gal(b1-4)[Fuc(a1-3)]GlcNAc
Procedure, shortened: as §1

[5] = biological target: Fuc(a1-2)Gal(b1-4)[Fuc(a1-3)]GlcNAc(b1-3)Gal(b1-4)[Fuc(a1-3)]GlcNAc(b1-3)Gal(b1-4)[Fuc(a1-3)]GlcNAc
Procedure, shortened: as §1

[6] = biological target: Fuc(a1-2)Gal(b1-4)[Fuc(a1-3)]GlcNAc(b1-3)GalNAc
Procedure, shortened: as §1

Fuc(a1-2)Gal6S(b1-4)Glc = biological target: Fuc(a1-2)Gal6S(b1-4)Glc
Procedure, shortened: as §1

[7] = biological target: Fuc(a1-2)Gal6S(b1-4)Glc6S
Procedure, shortened: as §1

[8] = biological target: Fuc(a1-2)Gal6S(b1-4)GlcNAc
Procedure, shortened: as §1

Fuc(a1-2)[Gal(a1-3)]Gal = biological target: Fuc(a1-2)[Gal(a1-3)]Gal
Procedure, shortened: as §1

[9] = biological target: Fuc(a1-2)[Gal(a1-3)]Gal(b1-3)GalNAc
Procedure, shortened: as §1

[10] = biological target: Fuc(a1-2)[Gal(a1-3)]Gal(b1-3)GlcNAc
Procedure, shortened: as §1

[11] = biological target: Fuc(a1-2)[Gal(a1-3)]Gal(b1-3)GlcNAc(b1-2)Man(a1-3)[Fuc(a1-2)[Gal(a1-3)]Gal(b1-3)GlcNAc(b1-2)Man(a1-6)]Man(b1-4)GlcNAc(b1-4)GlcNAc
Procedure, shortened: as §1

[12] = biological target: Fuc(a1-2)[Gal(a1-3)]Gal(b1-3)GlcNAc(b1-2)Man(a1-3)[Fuc(a1-2)[Gal(a1-3)]Gal(b1-3)GlcNAc(b1-2)Man(a1-6)]Man(b1-4)GlcNAc(b1-4)[Fuc(a1-6)]GlcNAc
Procedure, shortened: as §1

[13] = biological target: Fuc(a1-2)[Gal(a1-3)]Gal(b1-3)GlcNAc(b1-3)GalNAc
Procedure, shortened: as §1

[14] = biological target: Fuc(a1-2)[Gal(a1-3)]Gal(b1-4)Glc
Procedure, shortened: as §1

[15] = biological target: Fuc(a1-2)[Gal(a1-3)]Gal(b1-4)GlcNAc
Procedure, shortened: as §1

[16] = biological target: Fuc(a1-2)[Gal(a1-3)]Gal(b1-4)GlcNAc(b1-2)Man(a1-3)[Fuc(a1-2)[Gal(a1-3)]Gal(b1-4)GlcNAc(b1-2)Man(a1-6)]Man(b1-4)GlcNAc(b1-4)GlcNAc
Procedure, shortened: as §1

[17] = biological target: Fuc(a1-2)[Gal(a1-3)]Gal(b1-4)GlcNAc(b1-2)Man(a1-3)[Fuc(a1-2)[Gal(a1-3)]Gal(b1-4)GlcNAc(b1-2)Man(a1-6)]Man(b1-4)GlcNAc(b1-4)[Fuc(a1-6)]GlcNAc
Procedure, shortened: as §1

[18] = biological target: Fuc(a1-2)[Gal(a1-3)]Gal(b1-4)GlcNAc(b1-3)GalNAc
Procedure, shortened: as §1

[19] = biological target: Fuc(a1-2)[Gal(a1-3)]Gal(b1-4)[Fuc(a1-3)]Glc
Procedure, shortened: as §1

[20] = biological target: Fuc(a1-2)[Gal(a1-3)]Gal(b1-4)[Fuc(a1-3)]GlcNAc
Procedure, shortened: as §1

[21] = biological target: Fuc(a1-2)[Gal(a1-3)]Gal(b1-4)[Fuc(a1-3)]GlcNAc(b1-3)GalNAc
Procedure, shortened: as §1

[22] = biological target: Fuc(a1-2)[Gal(a1-4)]Gal(b1-4)GlcNAc
Procedure, shortened: as §1

[23] = biological target: Fuc(a1-2)[GalNAc(a1-3)]Gal
Procedure, shortened: as §1

[24] = biological target: Fuc(a1-2)[GalNAc(a1-3)]Gal(b1-3)GalNAc(a1-3)[Fuc(a1-2)]Gal(b1-4)GlcNAc
Procedure, shortened: as §1

[25] = biological target: Fuc(a1-2)[GalNAc(a1-3)]Gal(b1-3)GlcNAc
Procedure, shortened: as §1

[26] = biological target: Fuc(a1-2)[GalNAc(a1-3)]Gal(b1-3)GlcNAc(b1-2)Man(a1-3)[Fuc(a1-2)[GalNAc(a1-3)]Gal(b1-3)GlcNAc(b1-2)Man(a1-6)]Man(b1-4)GlcNAc(b1-4)GlcNAc
Procedure, shortened: as §1

[27] = biological target: Fuc(a1-2)[GalNAc(a1-3)]Gal(b1-3)GlcNAc(b1-2)Man(a1-3)[Fuc(a1-2)[GalNAc(a1-3)]Gal(b1-3)GlcNAc(b1-2)Man(a1-6)]Man(b1-4)GlcNAc(b1-4)[Fuc(a1-6)]GlcNAc
Procedure, shortened: as §1

[28] = biological target: Fuc(a1-2)[GalNAc(a1-3)]Gal(b1-3)GlcNAc(b1-3)GalNAc
Procedure, shortened: as §1

[29] = biological target: Fuc(a1-2)[GalNAc(a1-3)]Gal(b1-4)Glc
Procedure, shortened: as §1

[30] = biological target: Fuc(a1-2)[GalNAc(a1-3)]Gal(b1-4)GlcNAc
Procedure, shortened: as §1

[31] = biological target: Fuc(a1-2)[GalNAc(a1-3)]Gal(b1-4)GlcNAc(b1-2)Man(a1-3)[Fuc(a1-2)[GalNAc(a1-3)]Gal(b1-4)GlcNAc(b1-2)Man(a1-6)]Man(b1-4)GlcNAc(b1-4)GlcNAc
Procedure, shortened: as §1

[32] = biological target: Fuc(a1-2)[GalNAc(a1-3)]Gal(b1-4)GlcNAc(b1-2)Man(a1-3)[Fuc(a1-2)[GalNAc(a1-3)]Gal(b1-4)GlcNAc(b1-2)Man(a1-6)]Man(b1-4)GlcNAc(b1-4)[Fuc(a1-6)]GlcNAc
Procedure, shortened: as §1

[33] = biological target: Fuc(a1-2)[GalNAc(a1-3)]Gal(b1-4)GlcNAc(b1-3)Gal(b1-4)GlcNAc
Procedure, shortened: as §1

[34] = biological target: Fuc(a1-2)[GalNAc(a1-3)]Gal(b1-4)GlcNAc(b1-3)Gal(b1-4)GlcNAc(b1-3)Gal(b1-4)GlcNAc
Procedure, shortened: as §1

[35] = biological target: Fuc(a1-2)[GalNAc(a1-3)]Gal(b1-4)GlcNAc(b1-3)GalNAc
Procedure, shortened: as §1

[36] = biological target: Fuc(a1-2)[GalNAc(a1-3)]Gal(b1-4)[Fuc(a1-3)]GlcNAc
Procedure, shortened: as §1

[37] = biological target: Fuc(a1-2)[GalNAc(a1-3)]Gal(b1-4)[Fuc(a1-3)]GlcNAc(b1-3)GalNAc
Procedure, shortened: as §1

[38] = biological target: Fuc(a1-2)[GalNAc(a1-4)]Gal(b1-4)GlcNAc
Procedure, shortened: as §1

[39] = biological target: Fuc(a1-2)[GalNAc(b1-3)]Gal
Procedure, shortened: as §1

Fuc(a1-3)GlcNAc = biological target: Fuc(a1-3)GlcNAc
Procedure, shortened: as §1

[40] = biological target: Fuc(a1-3)[Gal(b1-4)]Glc6S
Procedure, shortened: as §1

[41] = biological target: Fuc(a1-3)[Gal(b1-4)]GlcNAc
Procedure, shortened: as §1

[42] = biological target: Fuc(a1-3)[Gal(b1-4)]GlcNAc(b1-2)Man(a1-3)[Fuc(a1-3)[Gal(b1-4)]GlcNAc(b1-2)Man(a1-6)]Man(b1-4)GlcNAc(b1-4)GlcNAc
Procedure, shortened: as §1

B1: Gal 9 (Canis lupus) (protein)
chain: MAFSSSQPPYLSPGVPFSGKIQGGLQDGLKITINGTILYCNGTRFAVNFHSGHSDSDIAFHFNPRFEEGGYVVCNTKQKGSWGSEERKMQMPFQMGNPFELCFMVNSCDFKVTVNGSHFTQYSHRVPFHYVDTLSITGAVQLSYISFQSPGVWQSSSAPITQTVIHTVQTTPGQPFPNPIIPPTAYPTPTYPMPFFTSIPGGLYPSKSIIVSGTVLPGAKRFHINLRSGNDIAFHLNPRFNENTVVRNMQINNSWGSEERSLPRKMPFVQGQSFSVWIMCEGHCFKVAVDGEHLFEYYHRLKNLLAINNMEVAGDVQLTHVQT
glycan array binding signal (z-score) [1]: -0.338
glycan array binding signal (z-score) [2]: -0.296
glycan array binding signal (z-score) [3]: -0.226
glycan array binding signal (z-score) [4]: -0.344
glycan array binding signal (z-score) [5]: -0.321
glycan array binding signal (z-score) [6]: -0.26
glycan array binding signal (z-score) (Fuc(a1-2)Gal6S(b1-4)Glc): -0.303
glycan array binding signal (z-score) [7]: -0.345
glycan array binding signal (z-score) [8]: -0.354
glycan array binding signal (z-score) (Fuc(a1-2)[Gal(a1-3)]Gal): -0.34
glycan array binding signal (z-score) [9]: 0.202
glycan array binding signal (z-score) [10]: 0.302
glycan array binding signal (z-score) [11]: 0.321
glycan array binding signal (z-score) [12]: -0.04
glycan array binding signal (z-score) [13]: 0.159
glycan array binding signal (z-score) [14]: 0.163
glycan array binding signal (z-score) [15]: 0.159
glycan array binding signal (z-score) [16]: 1.83
glycan array binding signal (z-score) [17]: 0.172
glycan array binding signal (z-score) [18]: -0.033
glycan array binding signal (z-score) [19]: -0.343
glycan array binding signal (z-score) [20]: -0.332
glycan array binding signal (z-score) [21]: -0.323
glycan array binding signal (z-score) [22]: -0.339
glycan array binding signal (z-score) [23]: -0.346
glycan array binding signal (z-score) [24]: 0.237
glycan array binding signal (z-score) [25]: 1.02
glycan array binding signal (z-score) [26]: 1.17
glycan array binding signal (z-score) [27]: 0.16
glycan array binding signal (z-score) [28]: 0.206
glycan array binding signal (z-score) [29]: 2.88
glycan array binding signal (z-score) [30]: 1.39
glycan array binding signal (z-score) [31]: 9.39
glycan array binding signal (z-score) [32]: 1.52
glycan array binding signal (z-score) [33]: 5.36
glycan array binding signal (z-score) [34]: 2.68
glycan array binding signal (z-score) [35]: 0.072
glycan array binding signal (z-score) [36]: -0.321
glycan array binding signal (z-score) [37]: -0.288
glycan array binding signal (z-score) [38]: -0.322
glycan array binding signal (z-score) [39]: -0.025
glycan array binding signal (z-score) (Fuc(a1-3)GlcNAc): -0.339
glycan array binding signal (z-score) [40]: -0.312
glycan array binding signal (z-score) [41]: -0.334
glycan array binding signal (z-score) [42]: -0.336
